Measured values: the supplement of paper PMC12217912
Some of the results follow. Sequences were assembled here from the parent chain. Inactive controls read about 0.05.

B1: TEV protease; numbered along this chain (parent)
chain: MGESLFKGPRDYNPISSSICHLTNESDGHTTSLYGIGFGPFIITNKHLFRRNNGTLVVQSLHGVFKVKDTTTLQQHLVDGRDMIIIRMPKDFPPFPQKLKFREPQREERICLVTTNFQTKSMSSMVSDTSCTFPSGDGIFWKHWIQTKDGQCGSPLVSTRDGFIVGIHSASNFTNTNNYFTSVPKNFMELLTNQEAQQWVSGWRLNADSVLWGGHKVFMVKPEEPFQPVKEATQL

Variants of: B1
Assay: raw area under fraction-flipped curve 0-4 h after induction (AUC4h, not background-subtracted), DNA-recorder readout of cleavage of the substrate (dimensionless); higher = more cleavage of the substrate by the protease variant
Settings: temperature: 34 °C; time window: 0-4 h after rhamnose induction
Procedure: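 In vivo DNA recorder in E. coli TOP10(DE3) ΔrhaA at 34 °C. Each TEVp single-site mutant (parent TEVp 0) is paired with a single-site variant of the 7-mer TEVs (canonical ENLYFQ|S). The substrate sits between flexible linkers in a Bxb1-sfGFP-TEVs-SsrA fusion, so cleavage stabilises Bxb1 and speeds flipping of a recombination array, read by NGS. The value is the raw area under the fraction-flipped curve over 0-4 h after rhamnose induction (AUC4h), with ≥20 reads per time point. It is not background-subtracted; inactive controls average about 0.047.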
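Further: Bxb1 expression induced with 0.2% (w/v) L-rhamnose at OD600 near 0.5, cultures sampled hourly, flipped fraction per protease–substrate barcode pair counted by paired-end Illumina sequencing.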

Variant | area with substrate ENLYFQA | area with substrate ENLYFQC | area with substrate ENLYFQK | area with substrate ENLYFQL | area with substrate ENLYFQR | area with substrate ENLYFQS | area with substrate ENLYFQT | area with substrate ENLYFQY | area with substrate ENLYFQD | area with substrate ENLYFQF | area with substrate ENLYFQG | area with substrate ENLYFQI | area with substrate ENLYFQM | area with substrate ENLYFQN | area with substrate ENLYFQP | area with substrate ENLYFQQ | area with substrate ENLYFQV | area with substrate ENLYFQW | area with substrate ENLYFQE | area with substrate ENLYFQH
Y179E | 0.0661 | 0.0495 | 0.0669 | 0.0504 | 0.0426 | 0.0669 | 0.0349 | 0.0528 |  |  |  |  |  |  |  |  |  |  |  | 
Y179S | 0.0693 | 0.0579 | 0.0673 |  | 0.0545 | 0.0601 | 0.0642 | 0.0803 | 0.0583 | 0.0562 | 0.0547 | 0.0478 | 0.0685 | 0.0607 | 0.0677 | 0.0682 | 0.0495 | 0.0645 |  | 
Y179A | 0.0668 |  |  |  |  | 0.0581 | 0.0631 |  |  |  | 0.0518 |  | 0.0628 |  |  |  |  |  | 0.0541 | 
T174S | 0.0702 |  |  |  | 0.0517 | 0.0983 | 0.0721 | 0.0618 |  |  |  | 0.0576 | 0.0937 |  |  |  |  |  |  | 0.0759
V183W | 0.0547 | 0.08 |  | 0.0589 | 0.058 | 0.078 |  | 0.0565 | 0.0515 | 0.0497 |  | 0.0633 | 0.0589 | 0.0631 | 0.0647 |  | 0.0599 | 0.0603 |  | 
P184F | 0.0895 |  | 0.0587 | 0.069 | 0.0562 | 0.0689 |  | 0.0251 | 0.0846 | 0.0611 | 0.0626 | 0.0636 | 0.0669 | 0.0631 | 0.0492 |  | 0.0595 | 0.0521 |  | 
N178A | 0.0854 | 0.141 |  |  | 0.0536 | 0.108 |  |  | 0.105 |  |  | 0.0793 |  |  | 0.0517 |  |  | 0.0688 |  | 
S182R | 0.0699 |  | 0.0547 | 0.0702 | 0.0545 | 0.069 | 0.0629 | 0.0525 | 0.0597 |  |  | 0.0653 | 0.0686 | 0.0364 |  |  |  | 0.0412 |  | 
L191P | 0.0571 |  |  |  | 0.0457 | 0.0562 |  | 0.0477 | 0.056 |  |  | 0.0417 | 0.053 | 0.0483 | 0.0606 |  | 0.0513 | 0.0505 |  | 
F173E | 0.0744 | 0.13 |  |  | 0.0371 | 0.104 |  |  |  | 0.0486 |  | 0.0439 | 0.0717 | 0.0213 |  |  | 0.0639 |  |  | 0.0727
S171H | 0.0451 | 0.0695 | 0.0604 | 0.0583 | 0.0611 | 0.0663 | 0.0538 |  |  | 0.0481 | 0.0629 | 0.0555 | 0.0558 | 0.0607 |  |  | 0.0509 | 0.0686 | 0.0699 | 0.0567
E189G | 0.0774 | 0.121 | 0.056 | 0.0735 | 0.048 | 0.097 | 0.0557 | 0.0742 | 0.078 |  | 0.0833 | 0.0535 | 0.0904 | 0.0959 | 0.0716 | 0.0867 | 0.0525 |  | 0.0582 | 
E189C | 0.0626 |  | 0.0592 | 0.0486 | 0.0383 | 0.0777 | 0.0474 | 0.0815 | 0.0614 | 0.0591 | 0.0826 | 0.0601 | 0.0866 | 0.0691 | 0.0577 | 0.0717 | 0.0348 | 0.0612 |  | 
E189N | 0.0873 | 0.11 | 0.0613 | 0.0595 | 0.056 | 0.102 | 0.062 | 0.0792 | 0.0821 | 0.119 | 0.106 | 0.0601 | 0.0821 | 0.109 | 0.0565 | 0.0745 | 0.0603 |  |  | 0.0715
